Where “and” joins values, the source holds several entries; their conditions need not be identical. Equal entries are not always repeated. Among all 390,000 compounds or so, about 4,000 (1%) were called active. The inconclusive results got no clear call from the source; some entries with a clear call stand among them for comparison. Calls follow the shape of the dose curve; as a rule, active = well fitted inhibition curve with a large enough effect; inconclusive = small, poorly fitted or top-dose-only effect; inactive = no such curve, though single readings can be large or run the other way. A potency beside an inconclusive call is a rough fit, not a confirmed value.
Each compound was assayed against Thioredoxin reductase 1, cytoplasmic (Rattus norvegicus) (UniProt O89049) (assay: qHTS Assay for Inhibitors of Mammalian Selenoprotein Thioredoxin Reductase 1 (TrxR1): qHTS). Details: recombinant rTrxR1, NADPH fluorescence consumption, selenite substrate; series mostly up to 114 µM.
UniProt O89049, sequence (O89049 whole entry, looked up): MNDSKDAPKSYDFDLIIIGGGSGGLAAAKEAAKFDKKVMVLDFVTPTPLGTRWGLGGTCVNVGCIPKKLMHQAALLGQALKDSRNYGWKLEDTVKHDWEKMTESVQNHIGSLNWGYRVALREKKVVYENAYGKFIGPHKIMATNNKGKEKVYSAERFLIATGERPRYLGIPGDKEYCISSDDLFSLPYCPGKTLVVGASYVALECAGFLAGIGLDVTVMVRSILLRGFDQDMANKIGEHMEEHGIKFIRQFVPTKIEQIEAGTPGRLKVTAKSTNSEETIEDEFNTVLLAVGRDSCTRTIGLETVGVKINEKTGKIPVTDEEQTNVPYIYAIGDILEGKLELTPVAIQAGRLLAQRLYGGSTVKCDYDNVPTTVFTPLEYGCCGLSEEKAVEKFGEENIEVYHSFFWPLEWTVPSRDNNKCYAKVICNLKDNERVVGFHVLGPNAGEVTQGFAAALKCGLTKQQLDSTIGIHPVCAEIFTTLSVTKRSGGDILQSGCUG
Outline: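 Rat TrxR1 (90 nM in the dispensed reagent) was pre-reduced with 400 uM NADPH for 5 min at room temperature, then incubated with compound for 15 min. After 400 uM selenite was added, NADPH fluorescence (Ex 340/Em 450 nm) was followed for 8 min.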
With COc1cc(OC)cc(C(=O)N/N=C2/SCC(=O)N2Cc2ccco2)c1 the Potency was “inactive”.
With CC(=O)Nc1ccc(N/C=C/C(=O)c2ccco2)cc1 the Potency was inconclusive: 79.4 µM [inhibitor, partial curve, poor fit].
In the case of C=C(C)C(=O)Nc1cccc(C2=NOC3(C2)C[C@H](C(N)=O)N(C(=O)c2ccccc2C(=O)c2ccccc2)C3)c1 (some centres undefined), the Potency is reported as “inactive”.
For CSCc1ccc(C(=O)N2CCC(CCC(=O)N(C)Cc3ccccc3)CC2)o1, the Potency was inconclusive: 89.1 µM [inhibitor, single point].
With CCOC(=O)/C=C/C(=O)OCC(=O)Nc1ccc(OC)c(Cl)c1 the Potency was active: 15.8 µM.
In the case of COc1ccc(C(=O)Nc2ccc3c(c2)C(=O)c2ccccc2C3=O)cc1OC, the Potency is reported as “inactive”.
For NS(=O)(=O)c1ccc(NC(=O)/C=C/c2ccco2)cc1, the Potency was active: 17.8 µM.
In the case of CN(Cc1ccc(F)cc1)C(=O)c1cccc(S(=O)(=O)N2CCN(c3ccccc3)CC2)c1, the Potency is reported as “inactive”.
O=C(NC(=S)Nc1ccc(N2CCOCC2)cc1)c1ccco1 was tested, and the Potency was inconclusive: 50.1 µM [inhibitor, partial curve].
With O=C(CCl)N(c1ccc(Cl)cc1)c1c[nH]c2ccccc12 the Potency was active: 0.447 µM.
In the case of O=C(CSc1nnc(-c2ccc(O)cc2)n1Cc1ccco1)c1ccccc1, the Potency is reported as inconclusive: 50.1 µM [inhibitor, partial curve].
With COCCCNC(=O)c1ccc(CS(=O)(=O)c2cccc(C(F)(F)F)c2)o1 the Potency was inconclusive: 79.4 µM [inhibitor, partial curve, poor fit].
With CCCc1cc(=O)oc2cc(OCC(=O)NCCCN3CCCC3=O)ccc12 the Potency was inconclusive: 89.1 µM [inhibitor, single point].
In the case of O=C1CC(=C2c3ccccc3-c3ccccc32)C(=O)N1CCN1CCN(c2cccc(Cl)c2)CC1, the Potency is reported as inconclusive: 70.8 µM [inhibitor, single point].
For Cc1c(NC(=S)NC(=O)CSc2ccc(Cl)cc2)cccc1C(=O)O, the Potency was inconclusive: 89.1 µM [inhibitor, single point].
With Cn1nc(-c2ccccn2)nc2c(=O)n(C)c(=O)nc1-2 the Potency was inconclusive: 79.4 µM [inhibitor, single point].
In the case of CCOCCCNC(=S)Nc1ccc(Br)cc1Cl, the Potency is reported as inconclusive: 22.4 µM [inhibitor, partial curve, poor fit].
With CC(=O)Oc1ccc(C(=O)Nc2cc(C)ccc2NC(=O)COc2ccccc2)cc1 the Potency was “inactive”.
In the case of CNc1ccc(Br)cc(C(=O)/C=C/c2ccc(OC)cc2OC)c1=O, the Potency is reported as active: 14.1 µM.
CN(Cc1cnc2nc(N)nc(N)c2n1)c1ccc(C(=O)N[C@@H](CCC(=O)O)C(=O)O)cc1 was tested, and the Potency was “inactive”.
With COc1ccccc1N1CCN(C(=O)c2cnn(-c3cccc(Cl)c3)c2C2CCN(C(=O)OC(C)(C)C)CC2)CC1 the Potency was inconclusive: 15.8 µM [inhibitor, full curve].
In the case of Cc1cccc(-c2nn3c(=O)cc(CN4CCN(C(=O)c5ccccc5Br)CC4)nc3s2)c1, the Potency is reported as “inactive”.
In the case of O=C(N/N=C/c1ccc(O)c(O)c1O)/C(=C/c1ccc([N+](=O)[O-])cc1)NC(=O)c1ccccc1, the Potency is reported as inconclusive: 79.4 µM [inhibitor, single point].
In the case of COc1ccc(OC)c(C2CC(=O)N3CN(c4cccc(Cl)c4C)CSC3=C2C#N)c1 (centres undefined), the Potency is reported as inconclusive: 14.1 µM [inhibitor, partial curve].
CCOC(=O)/C=C/C(=O)Nc1cccc([N+](=O)[O-])c1 was tested, and the Potency was active: 3.98 µM.
For CC(=O)CC[N+](C)(C)C, the Potency was active: 2.24 µM.
With Cc1cc(=O)oc2c(CN3CCCCC3)c(O)c(Cl)cc12 the Potency was inconclusive: 11.2 µM [inhibitor, full curve, poor fit].
For COc1ccc(NC(=O)CCS(=O)(=O)c2nc(-c3ccc4c(c3)OCO4)cc(C(F)(F)F)n2)cc1, the Potency was inconclusive: 20 µM [inhibitor, full curve].
With COC(=O)c1ccc(C2C(C(=O)c3ccc(C)o3)=C(O)C(=O)N2c2cc(C)on2)cc1 (centres undefined) the Potency was inconclusive: 56.2 µM [inhibitor, partial curve, poor fit].
With CC(=O)c1cccc(N2Cc3ccccc3C2=NC(=O)CCl)c1 the Potency was inconclusive: 28.2 µM [inhibitor, single point].
For O=C(CCCc1c[nH]c2ccccc12)N1CCOCC1, the Potency was “inactive”.
CC(=O)c1sc(NC(=O)CCS(=O)(=O)c2ccc(C)cc2)nc1C was tested, and the Potency was inconclusive: 20 µM [inhibitor, full curve].
In the case of CC1=CC(=Nc2c(C)n(C)n(-c3ccccc3)c2=O)C=C(C)C1=O, the Potency is reported as inconclusive: 56.2 µM [inhibitor, partial curve, poor fit].
For COC(=O)C1=C(C(=O)OC)[C@@H]2N(Cc3ccccc3)c3ccccc3[C@@]23C[C@@H](C(=O)OC)N(C(=O)c2cccs2)C3=N1, the Potency was “inactive”.
With Cc1ccc(C(=O)CC(C(=O)O)n2ccc(C)n2)cc1 (centres undefined) the Potency was inconclusive: 70.8 µM [inhibitor, single point].
With C=CCOc1ccc(-c2n[nH]c(=S)o2)cc1 the Potency was “inactive”.
For COc1cc(/C=C/C(=O)c2c(O)ccc3c(C)cc(=O)oc23)ccc1O, the Potency was inconclusive: 70.8 µM [inhibitor, partial curve] and inconclusive: 28.2 µM [inhibitor, single point].
O=[N+]([O-])c1cccc(/C=N/NC2=NS(=O)(=O)c3ccccc32)c1 was tested, and the activity change, negative = inhibition was inactive: 5.46% [at 11.4 µM].
With CC(=O)N1CCc2cc(S(=O)(=O)Nc3cccc(C(F)(F)F)c3)ccc21 the Potency was “inactive”.
In the case of COc1cccc(-n2c(-c3ccccc3)c[nH]c2=S)c1, the Potency is reported as inconclusive: 10 µM [inhibitor, partial curve, poor fit].
In the case of CC(/C=N/n1cnnc1)=C\c1ccco1, the Potency is reported as inconclusive: 70.8 µM [inhibitor, single point].
O=[N+]([O-])c1ccc(O)c(C=Nc2ccc3nc(-c4ccccc4)[nH]c3c2)c1 was tested, and the Potency was inconclusive: 31.6 µM [inhibitor, partial curve, poor fit].
In the case of CC(C)(C)c1cc(C2COC(=O)COCCOCC(=O)OCCOCCO2)cc(C(C)(C)C)c1O (centres undefined), the Potency is reported as inconclusive: 79.4 µM [inhibitor, partial curve].
Cc1[nH]n(-c2ccccc2)c(=O)c1C(c1cc(Cl)ccc1O)c1c(C)[nH]n(-c2ccccc2)c1=O was tested, and the Potency was inconclusive: 50.1 µM [inhibitor, partial curve, poor fit].
In the case of Cc1ccc(S(=O)(=O)n2cccc2CO)cc1, the Potency is reported as inconclusive: 56.2 µM [inhibitor, partial curve, poor fit].
For COc1ccc(C(CCN(Cc2ccc(OC)c(OC)c2)C(=O)CCl)c2ccccc2)cc1 (centres undefined), the Potency was inconclusive: 11.2 µM [inhibitor, full curve, poor fit].
O=C(Nc1ccccc1)Oc1ccc[nH]c1=O was tested, and the Potency was inconclusive: 44.7 µM [inhibitor, partial curve, poor fit].
CCCC(=O)Nc1ccc(-c2csc(N/N=C\c3ccncc3)n2)cc1 was tested, and the Potency was inconclusive: 56.2 µM [inhibitor, partial curve, poor fit].
With CN(C)/C=N/c1ncnc2c1cnn2-c1ccc(C(F)(F)F)cn1 the Potency was inconclusive: 89.1 µM [inhibitor, single point].
O=C(Nc1cccc(NC(=O)c2ccc([N+](=O)[O-])o2)c1)c1ccco1 was tested, and the Potency was inconclusive: 79.4 µM [inhibitor, partial curve, poor fit].
In the case of CCOc1ccc(C(=O)CN2CCN(S(=O)(=O)c3ccc(Cl)cc3)CC2)cc1, the Potency is reported as inconclusive: 25.1 µM [inhibitor, single point].
In the case of CCn1c(O)c(/C=N/N=C2CCCCC2)c2cc(C3=NNC(=O)CC3)ccc21, the Potency is reported as inconclusive: 79.4 µM [inhibitor, single point].
With COc1ccc(NC(=O)CCS(=O)(=O)c2nc(-c3cccs3)cc(C(F)(F)F)n2)cc1 the Potency was active: 12.6 µM.
For O=C(O)c1ccccc1C(=O)N1CCN(c2cccc(Cl)c2)CC1, the Potency was inconclusive: 25.1 µM [inhibitor, single point].
CCCCOc1ccc(C(=O)NNC(=S)NC(=O)CC)cc1 was tested, and the Potency was “inactive”.
For FC(F)(F)c1nnc(-c2ccccc2)nc1Sc1ccccc1, the Potency was inconclusive: 7.94 µM [inhibitor, partial curve].
For CC(=O)Nc1cccc(C(=O)/C=C/c2ccc(C)cc2)c1, the Potency was inconclusive: 35.5 µM [inhibitor, single point].
For CCOC(=O)CSc1n[nH]c(=S)s1, the Potency was inconclusive: 20 µM [inhibitor, partial curve, poor fit].
With COc1ccccc1CNS(=O)(=O)c1c(C(=O)N2CCCC2)c(C)n(C)c1C the Potency was “inactive”.
O=C(NC(=S)Nc1ccc2c(c1)OCCO2)c1ccc(F)cc1Cl was tested, and the Potency was inconclusive: 56.2 µM [inhibitor, single point].
O=C(NC(=S)Nc1ccc(Cl)cc1Cl)C1CC1 was tested, and the Potency was inconclusive: 3.16 µM [inhibitor, full curve, poor fit].
For O=S(=O)(NCC(c1cccs1)S(=O)(=O)c1ccccc1)c1ccc(F)cc1 (centres undefined), the Potency was active: 12.6 µM.
In the case of CCCn1c(=S)[nH]c2sc3c(c2c1=O)CCCC3, the Potency is reported as inconclusive: 0.631 µM [inhibitor, full curve, poor fit].
C#CCOCCOCCOCCNc1nc(N2CCN(C(=O)[C@H](CCC(=O)O)n3cc(C(N)[C@H](C)CC)nn3)CC2)nc(N2CCN(C(=O)[C@H](Cc3ccc(O)cc3)n3cc(C(N)[C@H](C)CC)nn3)CC2)n1 (some centres undefined) was tested, and the Potency was inconclusive: 56.2 µM [inhibitor, partial curve].

Source: PubChem BioAssay AID588453 (National Center for Advancing Translational Sciences (NCATS), 2011)
% is scaled to controls: 0 for no effect and ±100 for the full control effect; potency is read from the fitted curve at half-maximal effect; tags tell the direction and shape of the fitted curve.
Also: nearly all actives have a fitted effect of over 65% in size.
